Our source for the cytotoxicity call and growth inhibition call values is the antibiotic and cytotoxicity screens of Wong et al. (2023).

Some of the results follow.

One assay deals with HSkMC. As to the kind of experiment: cytotoxicity call (relative viability < 0.9). The settings on record: 10 µM.
For the next assay, the system named is S. aureus RN4220. As to the kind of experiment: growth inhibition call (relative growth <= 0.2). To be noted: 50 µM.

For `COc1ccc(CN(C)C[C@@H]2Oc3ccc(NS(C)(=O)=O)cc3CC(=O)N([C@H](C)CO)C[C@@H]2C)cc1`, in the assay on HSkMC, the cytotoxicity call is “inactive”. For the same compound, in the assay with S. aureus RN4220, the growth inhibition call is “inactive”.

`C[C@@H]1CCCCO[C@@H](CN(C)Cc2ccc(C(F)(F)F)cc2)[C@H](C)CN([C@@H](C)CO)C(=O)c2cc(NS(=O)(=O)c3cccs3)ccc2O1`: the cytotoxicity call in the assay on HSkMC was “inactive”. The growth inhibition call in the assay on S. aureus RN4220 is “inactive”.

As to `Cc1noc(C)c1NC(=O)N(C)C[C@H]1Oc2ccc(NC(=O)C3CC3)cc2C(=O)N([C@H](C)CO)C[C@@H]1C`, the cytotoxicity call in the assay with HSkMC was “inactive”. Besides, in the assay on S. aureus RN4220, the growth inhibition call was “inactive”.

On to `C[C@@H]1CCCCO[C@H](CN(C)Cc2ccc(C(=O)O)cc2)[C@H](C)CN([C@H](C)CO)C(=O)c2cc(NS(=O)(=O)c3cccs3)ccc2O1`, for which, in the assay with HSkMC, the cytotoxicity call is “inactive”. Besides, the growth inhibition call with S. aureus RN4220 was “inactive”.

For the compound `COc1ccc(NC(=O)N(C)C[C@H]2OCCCC[C@H](C)Oc3ccc(NS(=O)(=O)c4cccs4)cc3C(=O)N([C@@H](C)CO)C[C@@H]2C)cc1`, the cytotoxicity call in the assay with HSkMC is “inactive”. The growth inhibition call in the assay on S. aureus RN4220 is “inactive”.

For the compound `C[C@@H]1CCCCO[C@H](CN(C)S(=O)(=O)c2ccccc2)[C@@H](C)CN([C@@H](C)CO)C(=O)c2cc(NS(C)(=O)=O)ccc2O1`, in the assay with HSkMC, the cytotoxicity call is “inactive”. For the same compound, the growth inhibition call in the assay with S. aureus RN4220 was “inactive”.

`Cc1noc(C)c1NC(=O)Nc1ccc2c(c1)CC(=O)N([C@@H](C)CO)C[C@H](C)[C@@H](CN(C)S(=O)(=O)c1cccs1)O2`: in the assay with HSkMC, the cytotoxicity call is “inactive”. Besides, the growth inhibition call in the assay with S. aureus RN4220 was “inactive”.

As to `CC(C)CNC(=O)C(=O)NC(C)C`, the cytotoxicity call in the assay with HSkMC is “inactive”. The growth inhibition call in the assay with S. aureus RN4220 is “inactive”.

On to `Cc1noc(C)c1NC(=O)Nc1ccc2c(c1)C(=O)N([C@@H](C)CO)C[C@@H](C)[C@@H](CN(C)Cc1ccc3c(c1)OCO3)OCCCC[C@H](C)O2`, for which the cytotoxicity call in the assay on HSkMC was “inactive”. Besides, the growth inhibition call in the assay on S. aureus RN4220 was “inactive”.

For `Nc1cc(=O)nc(C(F)(F)F)[nH]1`, the cytotoxicity call in the assay on HSkMC was “inactive”. For the same compound, in the assay with S. aureus RN4220, the growth inhibition call was “inactive”.

As for `CC(C)NC(=O)Nc1ccc2c(c1)C(=O)N([C@H](C)CO)C[C@H](C)[C@@H](CN(C)Cc1ccccc1)OCCCC[C@H](C)O2`, the cytotoxicity call in the assay with HSkMC was “inactive”. The growth inhibition call in the assay on S. aureus RN4220 is “inactive”.

For `COc1ccc(S(=O)(=O)Nc2cccc3c2O[C@@H](CN(C)Cc2ccc(Cl)c(Cl)c2)[C@H](C)CN([C@@H](C)CO)C3=O)cc1`, the cytotoxicity call in the assay with HSkMC was “inactive”. For the same compound, the growth inhibition call in the assay on S. aureus RN4220 was “inactive”.

As to `C[C@H](CO)N1C[C@H](C)[C@H](CN(C)Cc2ccc(C(=O)Nc3ccccc3N)cc2)Oc2ccc(NC(=O)C3CCCCC3)cc2CC1=O`, the cytotoxicity call in the assay with HSkMC was “inactive”. In the assay with S. aureus RN4220, the growth inhibition call was “inactive”.

For `O=C(C[C@@H]1C[C@@H]2c3cc(NS(=O)(=O)c4ccc(F)cc4)ccc3O[C@@H]2[C@H](CO)O1)NCc1ccccc1`, the cytotoxicity call in the assay on HSkMC was “inactive”. Moreover, in the assay on S. aureus RN4220, the growth inhibition call was “inactive”.

As to `C[C@H]1CN([C@@H](C)CO)C(=O)CCCn2cc(nn2)CO[C@@H]1CN(C)C(=O)Nc1cccc2ccccc12`, in the assay on HSkMC, the cytotoxicity call was “inactive”. In addition, in the assay on S. aureus RN4220, the growth inhibition call was “inactive”.

On to `CN(C)CCCNC(=O)C[C@@H]1CC[C@H]2[C@@H](COc3ccc(NC(=O)c4cccc(F)c4)cc3C(=O)N2C)O1`, for which the cytotoxicity call with HSkMC is “inactive”. Moreover, the growth inhibition call in the assay with S. aureus RN4220 is “inactive”.

For `COc1ccc(CN(C)C[C@H]2OCCCC[C@H](C)Oc3ccc(NS(=O)(=O)c4ccc(Cl)cc4)cc3C(=O)N([C@H](C)CO)C[C@H]2C)cc1`, the cytotoxicity call in the assay on HSkMC was “inactive”. For the same compound, in the assay with S. aureus RN4220, the growth inhibition call was “inactive”.

In the case of `CC(C)CC#Cc1ccc2c(c1)O[C@H](CN(C)Cc1cncnc1)[C@H](C)CN([C@@H](C)CO)S2(=O)=O`, the cytotoxicity call with HSkMC was “inactive”. In addition, the growth inhibition call in the assay with S. aureus RN4220 is “inactive”.

For the compound `Cc1noc(C)c1NC(=O)Nc1ccc2c(c1)C(=O)N([C@@H](C)CO)C[C@H](C)[C@@H](CN(C)Cc1ccc3c(c1)OCO3)OCCCC[C@H](C)O2`, in the assay with HSkMC, the cytotoxicity call was “inactive”. Further, in the assay with S. aureus RN4220, the growth inhibition call was “inactive”.

`Cc1ccc(N2CCC[C@]3(CCNC3=O)C2)nn1`: the cytotoxicity call in the assay on HSkMC was “inactive”. The growth inhibition call in the assay on S. aureus RN4220 is “inactive”.

As to `C[C@H](NC(=O)C[C@H]1CC[C@@H](NC(=O)CN2CCOCC2)[C@@H](CO)O1)c1ccccc1`, in the assay with HSkMC, the cytotoxicity call was “inactive”. In addition, the growth inhibition call in the assay on S. aureus RN4220 is “inactive”.

With `CCS(=O)(=O)N1C[C@]2(CN(C2)C(=O)Nc2ccc(cc2)F)c2c(n(c3cc(ccc23)OC)C)[C@H]1CO`, in the assay with HSkMC, the cytotoxicity call was “inactive”. Further, in the assay with S. aureus RN4220, the growth inhibition call was “inactive”.

On to `C[C@@H]1CCCCO[C@H](CN(C)C(=O)Nc2ccc(F)cc2)[C@H](C)CN([C@@H](C)CO)C(=O)c2cc(NC(=O)c3ccncc3)ccc2O1`, for which the cytotoxicity call in the assay with HSkMC is “inactive”. The growth inhibition call in the assay with S. aureus RN4220 is “inactive”.

On to `O=[N+]([O-])c1ncn(Cc2ccccn2)n1`, for which the cytotoxicity call with HSkMC was “inactive”. Moreover, in the assay on S. aureus RN4220, the growth inhibition call was “inactive”.

Consider `Cc1noc(C)c1S(=O)(=O)Nc1ccc2c(c1)C(=O)N([C@H](C)CO)C[C@H](C)[C@H](CN(C)Cc1ccc3c(c1)OCO3)O2`, for which the cytotoxicity call in the assay with HSkMC is “inactive”. Further, in the assay on S. aureus RN4220, the growth inhibition call was “inactive”.

As to `C[C@@H]1CN([C@@H](C)CO)C(=O)Cc2cc(NC(=O)Cn3cnnn3)ccc2O[C@H]1CN(C)C(=O)Nc1ccccc1`, the cytotoxicity call in the assay with HSkMC is “inactive”. The growth inhibition call in the assay on S. aureus RN4220 is “inactive”.

For `O.O=C([O-])CC(O)(CC(=O)[O-])C(=O)[O-].[Li+].[Li+].[Li+]`, the cytotoxicity call in the assay with HSkMC is “inactive”. Also, the growth inhibition call in the assay on S. aureus RN4220 was “inactive”.

Turning to `C#CCSC1=N[C@@]2(COCc3ccc(OC)cc3)Oc3ccccc3[C@H]([C@H]2CO[Si](C)(C)C(C)(C)C)N1C(=O)c1ccccc1`, in the assay on HSkMC (human skeletal muscle cells), the cytotoxicity call is “inactive”. The growth inhibition call with S. aureus RN4220 is “inactive”.

As for `C[C@@H]1CN([C@@H](C)CO)S(=O)(=O)c2ccc(C#CC(C)(C)O)cc2O[C@H]1CN(C)C(=O)C1CCCCC1`, the cytotoxicity call in the assay with HSkMC is “inactive”. Also, the growth inhibition call in the assay with S. aureus RN4220 is “inactive”.
